Reference: patent US11713338B2, “Cyclic peptides multimers targeting α-4-β-7 integrin” (priority 2016, dated 2023)
At least one structure is not confirmed: it was looked up by name or label, or the drawing left a doubt.

Assays:
[1] = molecular target: T1, recombinant integrin α4β1 (Homo sapiens, UniProt P05556+P13612); experiment: Integrin α4β1—VCAM-1 competition ELISA; assay type: binding; conditions: read-out: ELISA a4b1 Assay IC50
T1 construct: purchased R&D Systems 5397-A3-050
Method: Integrin α4β1—VCAM-1 Competition ELISA
The plate was incubated at 4° C. overnight. […] The plate was then incubated for 1 hour at room temperature. The plate was washed three times with wash buffer (50 mM Tris, 100 mM NaCl, 1 mM MnCl2, 0.05% Tween). To each well, 50 μl of compound diluted in assay buffer was added by transfer from a compound serial dilution plate. […] The plate was incubated at room temperature with shaking (300 rpm) for 2 hours to reach binding equilibrium. Then the plate was washed three times in wash buffer and 100 μl anti-human IgG Fc specific-HRP (Abcam, Ab97225) diluted at 1:2000 in assay buffer was added to each well. The plate was incubated at room temperature for 1 hour under agitation.

[2] = molecular target: T2, recombinant integrin α4β7 (Homo sapiens, UniProt P13612+P26010, DEL724-798); experiment: Integrin α4β7—MAdCAM-1 ELISA competition assay; assay type: binding; conditions: read-out: ELISA a4b7 Assay IC50
T2 construct: purchased R&D Systems 5397-A3-050
T2 sequence (P13612 34-970 limits assumed): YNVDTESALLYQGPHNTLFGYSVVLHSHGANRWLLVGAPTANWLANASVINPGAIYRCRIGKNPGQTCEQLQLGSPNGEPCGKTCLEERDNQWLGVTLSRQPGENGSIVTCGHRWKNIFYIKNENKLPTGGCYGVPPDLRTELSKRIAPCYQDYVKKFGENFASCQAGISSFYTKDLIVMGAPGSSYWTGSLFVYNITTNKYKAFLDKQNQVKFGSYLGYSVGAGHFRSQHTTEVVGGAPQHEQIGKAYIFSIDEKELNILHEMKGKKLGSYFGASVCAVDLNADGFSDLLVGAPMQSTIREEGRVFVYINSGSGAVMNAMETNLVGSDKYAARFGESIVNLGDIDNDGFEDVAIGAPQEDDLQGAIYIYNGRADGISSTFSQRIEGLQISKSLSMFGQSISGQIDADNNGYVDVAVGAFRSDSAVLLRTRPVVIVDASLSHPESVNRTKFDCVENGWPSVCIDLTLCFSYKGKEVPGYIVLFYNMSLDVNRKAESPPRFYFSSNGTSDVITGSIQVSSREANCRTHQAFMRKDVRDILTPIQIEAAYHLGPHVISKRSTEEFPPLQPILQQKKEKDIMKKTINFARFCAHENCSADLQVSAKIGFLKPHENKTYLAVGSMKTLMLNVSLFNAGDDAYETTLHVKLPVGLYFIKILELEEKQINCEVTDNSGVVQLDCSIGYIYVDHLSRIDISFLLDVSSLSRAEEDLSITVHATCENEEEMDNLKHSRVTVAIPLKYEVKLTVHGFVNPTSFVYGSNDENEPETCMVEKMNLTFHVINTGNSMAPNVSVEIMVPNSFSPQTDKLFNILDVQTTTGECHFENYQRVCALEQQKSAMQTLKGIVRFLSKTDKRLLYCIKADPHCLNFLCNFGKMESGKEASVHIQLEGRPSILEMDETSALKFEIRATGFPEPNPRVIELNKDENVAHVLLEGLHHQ
T2 sequence (P26010 20-723 limits assumed): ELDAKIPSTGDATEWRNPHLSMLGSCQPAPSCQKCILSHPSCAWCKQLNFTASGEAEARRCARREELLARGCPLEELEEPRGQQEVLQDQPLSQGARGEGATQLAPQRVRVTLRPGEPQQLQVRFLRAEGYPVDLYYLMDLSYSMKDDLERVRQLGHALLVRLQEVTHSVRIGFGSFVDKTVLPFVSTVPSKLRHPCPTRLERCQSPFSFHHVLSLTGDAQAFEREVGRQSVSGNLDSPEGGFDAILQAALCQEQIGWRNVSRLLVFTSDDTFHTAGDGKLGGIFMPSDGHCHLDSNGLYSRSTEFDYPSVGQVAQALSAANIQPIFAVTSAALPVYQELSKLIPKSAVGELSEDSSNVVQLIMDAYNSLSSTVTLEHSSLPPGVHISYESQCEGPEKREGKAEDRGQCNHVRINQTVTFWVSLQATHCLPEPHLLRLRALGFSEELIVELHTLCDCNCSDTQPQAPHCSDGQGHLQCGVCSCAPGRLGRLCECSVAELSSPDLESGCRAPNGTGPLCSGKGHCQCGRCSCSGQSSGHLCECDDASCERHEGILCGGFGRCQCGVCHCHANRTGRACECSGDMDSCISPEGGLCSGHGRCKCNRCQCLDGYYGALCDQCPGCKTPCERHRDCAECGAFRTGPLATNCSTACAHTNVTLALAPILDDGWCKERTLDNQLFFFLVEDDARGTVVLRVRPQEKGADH

[3] = molecular target: T3, integrin α4β7 (RPMI8866 human cells adhering to MAdCAM-1) (Homo sapiens, UniProt P13612+P26010); experiment: Integrin α4β7-MAdCAM cell adhesion assay (RPMI8866 cells); assay type: cell-based
T3 construct: RMP18866 cells, which express integrin α4β7; host or cells: RPMI8866
T3 sequence (P13612 34-1032): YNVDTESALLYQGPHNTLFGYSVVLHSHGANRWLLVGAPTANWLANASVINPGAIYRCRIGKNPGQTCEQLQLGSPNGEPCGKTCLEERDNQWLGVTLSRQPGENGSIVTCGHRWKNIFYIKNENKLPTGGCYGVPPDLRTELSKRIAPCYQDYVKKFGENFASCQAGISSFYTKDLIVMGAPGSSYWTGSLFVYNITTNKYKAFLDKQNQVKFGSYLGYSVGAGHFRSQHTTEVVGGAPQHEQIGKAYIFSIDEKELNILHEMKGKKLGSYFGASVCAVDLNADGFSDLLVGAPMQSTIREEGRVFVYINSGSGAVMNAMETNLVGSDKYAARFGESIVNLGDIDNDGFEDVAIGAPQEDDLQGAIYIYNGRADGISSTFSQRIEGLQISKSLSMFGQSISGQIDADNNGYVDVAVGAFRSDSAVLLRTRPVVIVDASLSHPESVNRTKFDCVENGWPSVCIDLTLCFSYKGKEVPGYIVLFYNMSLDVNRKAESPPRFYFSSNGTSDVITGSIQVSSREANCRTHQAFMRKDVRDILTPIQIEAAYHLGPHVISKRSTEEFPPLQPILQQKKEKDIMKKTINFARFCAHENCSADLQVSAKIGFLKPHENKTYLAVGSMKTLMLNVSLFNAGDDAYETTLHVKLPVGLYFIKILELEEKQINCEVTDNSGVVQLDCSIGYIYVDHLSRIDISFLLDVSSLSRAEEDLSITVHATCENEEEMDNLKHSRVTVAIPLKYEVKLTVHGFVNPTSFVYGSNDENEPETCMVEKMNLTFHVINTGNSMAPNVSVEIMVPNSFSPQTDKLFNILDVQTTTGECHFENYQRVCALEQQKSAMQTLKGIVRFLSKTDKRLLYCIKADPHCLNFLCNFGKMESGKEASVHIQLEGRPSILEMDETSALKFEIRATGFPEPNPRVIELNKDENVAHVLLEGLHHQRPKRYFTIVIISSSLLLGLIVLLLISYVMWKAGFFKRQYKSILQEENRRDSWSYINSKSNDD
T3 sequence (P26010 20-798): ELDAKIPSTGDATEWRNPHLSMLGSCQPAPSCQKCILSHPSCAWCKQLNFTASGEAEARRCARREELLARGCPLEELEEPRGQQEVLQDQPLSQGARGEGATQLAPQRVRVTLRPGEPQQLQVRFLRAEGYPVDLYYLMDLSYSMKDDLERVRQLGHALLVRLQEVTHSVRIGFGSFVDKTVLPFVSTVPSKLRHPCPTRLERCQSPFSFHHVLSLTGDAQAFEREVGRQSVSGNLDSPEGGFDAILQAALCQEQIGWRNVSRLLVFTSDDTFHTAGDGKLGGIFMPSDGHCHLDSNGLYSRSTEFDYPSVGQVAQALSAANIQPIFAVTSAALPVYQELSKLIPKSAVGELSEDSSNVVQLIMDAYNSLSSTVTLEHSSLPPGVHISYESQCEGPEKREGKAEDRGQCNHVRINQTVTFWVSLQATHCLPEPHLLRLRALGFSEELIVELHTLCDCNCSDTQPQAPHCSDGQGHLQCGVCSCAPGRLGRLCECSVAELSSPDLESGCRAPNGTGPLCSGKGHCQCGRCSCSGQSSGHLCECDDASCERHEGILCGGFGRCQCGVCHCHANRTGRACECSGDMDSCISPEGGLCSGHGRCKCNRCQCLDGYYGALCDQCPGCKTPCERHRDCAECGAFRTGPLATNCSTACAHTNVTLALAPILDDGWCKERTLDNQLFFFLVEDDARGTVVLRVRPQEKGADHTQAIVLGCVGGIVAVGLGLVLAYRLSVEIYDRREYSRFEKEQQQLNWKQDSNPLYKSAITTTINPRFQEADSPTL
Method: Integrin α4β7-MAdCAM Cell Adhesion Assay
RPMI8866 cells were resuspended at 10 million cells/ml in PBS containing […] and incubated at 37° C. for 30 min in a 50 ml tube. […] The plate was emptied by inverting and blotting on paper towels and washed manually twice with PBS. 100 μl PBS was then added to each well. […] To calculate the dose response, the fluorescence value of control wells not containing cells was subtracted from each test well.

T1 sequence (P05556 21-728 limits assumed, one chain of several): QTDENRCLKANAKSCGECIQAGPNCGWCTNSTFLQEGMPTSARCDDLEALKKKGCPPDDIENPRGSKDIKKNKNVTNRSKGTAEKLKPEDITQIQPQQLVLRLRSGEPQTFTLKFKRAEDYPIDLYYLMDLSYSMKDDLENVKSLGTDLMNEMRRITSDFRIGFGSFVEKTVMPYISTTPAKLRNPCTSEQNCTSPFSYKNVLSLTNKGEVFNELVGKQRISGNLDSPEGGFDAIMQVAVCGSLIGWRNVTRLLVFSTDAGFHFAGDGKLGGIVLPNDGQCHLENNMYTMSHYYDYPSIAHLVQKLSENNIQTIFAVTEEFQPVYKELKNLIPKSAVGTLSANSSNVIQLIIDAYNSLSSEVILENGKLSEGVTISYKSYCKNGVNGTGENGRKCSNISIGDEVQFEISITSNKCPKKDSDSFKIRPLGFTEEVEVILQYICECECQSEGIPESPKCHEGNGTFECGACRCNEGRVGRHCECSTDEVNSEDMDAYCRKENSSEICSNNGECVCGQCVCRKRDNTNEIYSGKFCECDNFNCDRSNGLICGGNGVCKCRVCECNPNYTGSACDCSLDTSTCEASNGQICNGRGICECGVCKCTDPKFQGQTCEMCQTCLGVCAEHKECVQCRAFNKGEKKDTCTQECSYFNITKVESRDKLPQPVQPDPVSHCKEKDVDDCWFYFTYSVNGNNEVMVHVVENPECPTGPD

SMILES	IC50 [1]	IC50 [2]	IC50 [3]
CC(C)C[C@@H]1NC(=O)c2ccc(N3CCOCC3)c(c2)CNC(=O)[C@@H]2CCCN2[C@H](C(=O)NC(C)(C)C)[C@H](C)NC(=O)[C@H]([C@@H](C)O)NC(=O)[C@H](CC(=O)O)NC1=O [Compound 379]	161 nM	–	–
CC(C)C[C@@H]1NC(=O)[C@H](Cc2ccc(O)cc2)NC(=O)[C@@H]2CCCN2C(C(=O)NC(C)(C)C)C(CSc2ccccc2)NC(=O)[C@H](C(C)C)NC(=O)[C@H](CC(=O)O)NC1=O (stereo partly shown) [Compound 1]	162 nM	164 nM	–
Cc1noc(C)c1-c1ccccc1C[C@H]1NC(=O)[C@@H]2CCCN2[C@H](C(=O)NC(C)(C)C)[C@H](C)NC(=O)[C@H]([C@@H](C)O)NC(=O)[C@H](CC(=O)O)NC(=O)[C@H](CC(C)C)NC(=O)C[C@H](CCCCN)NC1=O [Compound 276]	14200 nM	–	–
CC(C)C[C@@H]1NC(=O)[C@H](Cc2ccc(O)cc2)NC(=O)[C@@H]2CCCN2C(C(=O)NC(C)(C)C)C(CSc2ccccc2)NC(=O)[C@H]([C@@H](C)O)NC(=O)[C@H](CC(=O)O)NC1=O (stereo partly shown) [Compound 3]	–	192 nM	–
CC(C)C[C@@H]1NC(=O)c2ccc(-c3ccc(N4CCN(C(=O)c5cc(O)cc(C(=O)N6CCN(c7ccc(-c8ccc9cc8CNC(=O)[C@@H]8CCCN8[C@H](C(=O)NC(C)(C)C)[C@H](C)NC(=O)[C@H]([C@@H](C)O)NC(=O)[C@H](CC(=O)O)NC(=O)[C@H](CC(C)C)NC9=O)cc7)CC6)n5)CC4)cc3)c(c2)CNC(=O)[C@@H]2CCCN2[C@H](C(=O)NC(C)(C)C)[C@H](C)NC(=O)[C@H]([C@@H](C)O)NC(=O)[C@H](CC(=O)O)NC1=O [Compound 490]	–	–	41 nM
CC(C)C[C@@H]1NC(=O)c2ccc(-c3ccc(N4CCN(C(=O)c5cc(C(=O)O)cc(C(=O)N6CCN(c7ccc(-c8ccc9cc8CNC(=O)[C@@H]8CCCN8[C@H](C(=O)NC(C)(C)C)[C@H](C)NC(=O)[C@H]([C@@H](C)O)NC(=O)[C@H](CC(=O)O)NC(=O)[C@H](CC(C)C)NC9=O)cc7)CC6)c5)CC4)cc3)c(c2)CNC(=O)[C@@H]2CCCN2[C@H](C(=O)NC(C)(C)C)[C@H](C)NC(=O)[C@H]([C@@H](C)O)NC(=O)[C@H](CC(=O)O)NC1=O [Compound 515]	–	–	34 nM
